Source: the supplement of paper PMC3334620
In all, about 33,000 sequences were measured (“E-score (-0.5 to 0.5)”: median about -0.035, highest 2% from about 0.34 on). Some of the results follow.

These sequences were tested against T1, Mot3 (UniProt P54785) (assay: PBM E-score (8-mer binding enrichment) (E-score (-0.5 to 0.5)); higher = stronger / more preferred TF binding; most listed sequences are background and not binding sites). Conditions: protein concentration: 200 nM; construct: GST-full length.
T1 sequence: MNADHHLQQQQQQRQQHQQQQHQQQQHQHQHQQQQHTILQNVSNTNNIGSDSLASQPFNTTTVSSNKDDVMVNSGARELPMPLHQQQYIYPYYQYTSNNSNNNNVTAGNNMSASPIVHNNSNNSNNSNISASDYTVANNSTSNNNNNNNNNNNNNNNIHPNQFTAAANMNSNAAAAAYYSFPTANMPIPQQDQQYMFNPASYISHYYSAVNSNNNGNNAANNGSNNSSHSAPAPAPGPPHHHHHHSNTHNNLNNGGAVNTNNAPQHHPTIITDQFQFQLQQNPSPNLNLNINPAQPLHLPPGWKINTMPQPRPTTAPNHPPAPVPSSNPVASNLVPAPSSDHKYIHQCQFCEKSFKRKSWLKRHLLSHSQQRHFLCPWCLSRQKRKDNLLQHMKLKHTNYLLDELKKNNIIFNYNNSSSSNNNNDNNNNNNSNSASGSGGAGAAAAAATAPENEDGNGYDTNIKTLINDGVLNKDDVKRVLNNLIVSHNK
Method in brief: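 Full-length yeast transcription factors or their DNA-binding domains, GST-tagged and expressed with PURExpress, were applied at about 100-200 nM to universal all-10-mer Agilent arrays. These arrays had been made double-stranded by primer extension on fresh or once-stripped slides. Detection used fluorescent anti-GST, normalisation used masliner, and E-scores for ungapped eight-base words pooled with reverse complements came from the Universal PBM Analysis Suite.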

Sequence | PBM E-score
AGGTTTGA | -0.1
AAGAGGAA | 0.221
CTGGTAAG | -0.143
ACATATTA | 0.302
TCAGCGCA | 0.0776
ATGTGTGG | 0.0133
GATGCGCA | -0.151
GGCGGTAC | -0.279
ATTAGTCC | -0.0419
AAGACACC | 0.00535
AAACTAAC | 0.262
AGACAACA | 0.0804
TCTCTCAA | -0.056
ACAAATAT | 0.161
GGAGCGTA | 0.155
ACTCGTTA | 0.0915
AGCGGCAT | -0.0525
CCGACTAG | -0.237
AAATTTAT | 0.118
CTTAATGA | -0.005
GACGATAA | -0.137
GATCTTCC | -0.23
AATCACGG | -0.101
AGTATCAC | -0.0167
TTCACCAA | 0.128

Sequence | PBM E-score
GTCCAGGA | -0.00926
GCATTTCC | 0.114
ATGAGGAG | -0.194
AGAAGCCA | -0.291
ATCGATGC | 0.116
CCCGTCAC | -0.265
ACGCCAAA | -0.0573
CAAAGCTA | 0.0327
AGCCGTGC | 0.0141
ACTTAATA | 0.242
CCGCGAAA | -0.183
GGATTGAC | -0.0501
CGGCACAG | -0.274
GAGATTTA | 0.00511
AACACTAC | 0.135
ATGCGGAA | -0.0583
CCACACGG | -0.0702
GTCGTACA | 0.109
AGAATCGC | -0.304
CACTATGC | -0.0288
CAAACCAA | 0.0865
ACACGCGG | 0.252
GCTACACC | -0.0458
ATATAGCA | -0.149
GCCTGGAA | 0.187

Sequence | PBM E-score
ACATGTAG | 0.388
GTTACCCA | -0.138
ATATGCAC | 0.019
AGGTGGTC | -0.232
GATCGGAC | -0.158
ACCTGAGG | -0.121
GCGATAGA | -0.11
AAGATTAC | 0.212
ATCGTTGG | -0.00489
AAGTATCA | -0.0707
ATGATGCA | 0.0819
ATTGCATA | 0.0155
ACACAAAT | 0.184
AAGCATGG | -0.0628
AGCTAACC | -0.152
ACTGATAT | -0.153
AACACGAG | 0.288
CCGCAGAG | -0.395
CGTTCAGA | -0.143
AGTACAAA | 0.183
CGGCGATA | -0.115
AAACTGCC | -0.144
CGCTACCC | -0.305
CAACACTG | 0.0192
CGATAACA | 0.175

Sequence | PBM E-score
AAGAATGT | 0.143
CGACCCGA | -0.325
CCAGGCGG | -0.0321
AGACGCGC | 0.0991
GGTCCCAC | -0.266
GGGTGGCA | -0.239
AGGTCGAA | 0.00993
CTGCAGGA | 0.291
CATACACG | 0.316
AATAGCGT | 0.0246
TCCGAGAA | -0.173
GAATGACA | 0.188
GTAAGCGA | 0.0864
CCATAAAC | -0.0801
CAGGTAAG | 0.271
CGAGCTCA | -0.249
AGGCGGTA | -0.00409
ATTACAAG | 0.388
CACGGGGA | 0.00419
ACATTATA | 0.16
CTCTTCCA | -0.0461
GCTAATAC | 0.102
CCGTATCA | 0.0442
ATGAATCA | 0.0766
GACAAGTC | -0.0108

Sequence | PBM E-score
TTGATAAA | 0.157
ATAACGGG | -0.0475
GGTTACGA | -0.133
ATGGGGTG | -0.101
CAGCGAAA | -0.0229
CACTTTAC | 0.174
ATTAAGGC | 0.378
CGTCTAAC | -0.0212
CTAATCAA | 0.0869
AGGACGCC | 0.133
CCCTTTCA | 0.0272
GTGGCCTA | 0.0303
AAACAAAG | 0.243
ATGGATAC | 0.183
AAGTAAAC | 0.0956
GTCGCCAC | -0.264
AGGCACCG | 0.491
GAGAGGCA | 0.239
CCACACCA | -0.118
CGATAGTC | -0.0497
TCATTTAA | 0.00818
CGTGGCAA | -0.0326
GTACCGAC | -0.0363
AGAACTCT | -0.145
TCTGGTAA | -0.0343

Sequence | PBM E-score
CTGTTTAA | 0.119
ATACCGGC | -0.0877
AGTACGGG | -0.294
TAAGCTAA | -0.0354
CCTTCGTA | 0.131
CTTTCGGC | -0.191
CACATCTG | -0.0964
AATCGCAA | -0.126
CGACTTAC | -0.127
GGATTGGA | -0.0979
ACAGTAAA | 0.119
AAGGGCAG | -0.104
GAGTGACC | -0.334
GGCAATTA | 0.247
CCGTTGAA | -0.155
CAGAATCC | -0.127
ACTAAACC | 0.139
ACGAGTGC | 0.106
ATCGGCTA | -0.0778
TATAACGA | 0.115
CCCACCTA | -0.118
CATATAGC | -0.0609
GCGTAACC | 0.135
CGCCACCA | -0.198
ATGGTTAC | 0.139

Sequence | PBM E-score
GAAGAAAA | -0.0111
GCCACCGC | -0.339
ATCGGTTA | -0.00545
CCCTGGCC | -0.264
CTTTATTC | -0.0507
GTTTATAA | 0.15
CGACCTAA | -0.0677
CGAGTCTC | -0.298
CACCCCTC | -0.0821
AGAAGAGG | -0.173
ATAACTAC | 0.179
ACCCGTGC | -0.0819
CCTGCAGG | 0.413
CAAGATTG | 0.123
CATAGTCA | 0.0214
ATGCCTGG | 0.127
ACCTAAAC | 0.169
CCCATACA | 0.164
ATTGCAGC | -0.178
ACAGCGGG | -0.173
ACTTGCAT | 0.0134
GCTACGTA | 0.195
